Source: patent US11618753B2 (priority 2018, dated 2023)

The compounds below were run on MLKL phosphorylation, HT29-L23 human colorectal adenocarcinoma cells (assay: cells). Conditions: read-out: pMLKL HCS Cell Assay (IC50, uM).

Row | SMILES | IC50
1 | Cc1ccc(-c2cc(C(F)(F)F)c3c(N)ncnn23)c(F)c1C(=O)N[C@@H]1CN(C(=O)CC(C)C)C[C@@H]1F [Example 748, 3-[4-amino-5-(trifluoromethyl)pyrrolo[2,1-f][1,2,4]triazin-7-yl]-2-fluoro-N-[(3R,4S)-4-fluoro-1-(3-methylbutanoyl)pyrrolidin-3-yl]-6-methylbenzamide] | 0.0035 µM
2 | CC(C)(F)C(=O)N1C[C@H](F)[C@H](NC(=O)c2cc(-c3cc(CN4CCC(F)(F)CC4)c4c(N)ncnn34)ccc2Cl)C1 [Example 1144, 5-{4-amino-5-[(4,4-difluoropiperidin-1-yl)methyl]pyrrolo[2,1-f][1,2,4]triazin-7-yl}-2-chloro-N-[(3R,4S)-4-fluoro-1-(2-fluoro-2-methylpropanoyl)pyrrolidin-3-yl]benzamide] | 0.00034 µM
3 | Cc1cc(-c2cc(C(F)(F)F)c3c(N)ncnn23)cc(C(=O)N[C@@H]2CN(C(=O)C(C)(C)F)C[C@@H]2F)c1Cl [Example 705, 5-[4-amino-5-(trifluoromethyl)pyrrolo[2,1-f][1,2,4]triazin-7-yl]-2-chloro-N-[(3R,4S)-4-fluoro-1-(2-fluoro-2-methylpropanoyl)pyrrolidin-3-yl]-3-methylbenzamide] | 0.018 µM
4 | COc1cc(F)c(-c2cc(CN3CCC(F)(F)CC3)c3c(N)ncnn23)cc1C(=O)N[C@@H]1CN(C(=O)C2CC(F)(F)C2)C[C@@H]1F [Example 1633, 5-{4-amino-5-[(4,4-difluoropiperidin-1-yl)methyl]pyrrolo[2,1-f][1,2,4]triazin-7-yl}-N-[(3R,4S)-1-(3,3-difluorocyclobutanecarbonyl)-4-fluoropyrrolidin-3-yl]-4-fluoro-2-methoxybenzamide] | 0.0024 µM
5 | Nc1ncnn2c(-c3cccc(C(=O)N[C@@H]4CN(C(=O)C5CC(F)C5)C[C@@H]4F)c3F)cc(C(F)(F)F)c12 (stereo partly drawn) [Example 771, 3-[4-amino-5-(trifluoromethyl)pyrrolo[2,1-f][1,2,4]triazin-7-yl]-2-fluoro-N-[(3R,4S)-4-fluoro-1-(3-fluorocyclobutanecarbonyl)pyrrolidin-3-yl]benzamide] | 0.128 µM
6 | CC(O)(CC(=O)N1C[C@H](F)[C@H](NC(=O)c2cc(-c3cc(C(F)(F)F)c4c(N)ncnn34)ccc2OCC(F)(F)F)C1)C(F)(F)F (stereo partly drawn) [Example 1068, 5-[4-amino-5-(trifluoromethyl)pyrrolo[2,1-f][1,2,4]triazin-7-yl]-N-[(3R,4S)-4-fluoro-1-(4,4,4-trifluoro-3-hydroxy-3-methylbutanoyl)pyrrolidin-3-yl]-2-(2,2,2-trifluoroethoxy)benzamide] | 0.106 µM
7 | Nc1ncnn2c(-c3cc(C(=O)N[C@@H]4CN(C(=O)C5CC(F)(F)C5)C[C@@H]4F)ccc3F)cc(C(F)(F)F)c12 [Example 419, 3-[4-amino-5-(trifluoromethyl)pyrrolo[2,1-f][1,2,4]triazin-7-yl]-N-[(3R,4S)-1-(3,3-difluorocyclobutane-carbonyl)-4-fluoropyrrolidin-3-yl]-4-fluorobenzamide] | 0.019 µM
8 | [2H]C([2H])([2H])Oc1ncc(-c2cc(CN3CC(F)(F)C3)c3c(N)ncnn23)cc1C(=O)N[C@@H]1CN(C(=O)CC(C)C)C[C@@H]1F [Example 1285, 5-{4-amino-5-[(3,3-difluoroazetidin-1-yl)methyl]pyrrolo[2,1-f][1,2,4]triazin-7-yl}-N [(3R,4S)-4-fluoro-1-(3-methylbutanoyl)pyrrolidin-3-yl]-2-(methoxy-d3)nicotinamide] | 0.0006 µM
9 | Cc1ccc(-c2cc(C(F)(F)F)c3c(N)ncnn23)cc1C(=O)N[C@@H]1CN(C(=O)CC(C)C)C[C@@H]1F [Example 991, 5-[4-amino-5-(trifluoromethyl)pyrrolo[2,1-f][1,2,4]triazin-7-yl]-N-[(3R,5S)-4-fluoro-1-(3-methylbutanoyl)pyrrolidin-3-yl]-2-methylbenzamide] | 0.0014 µM
10 | CC(O)(CC(=O)N1C[C@H](F)[C@H](NC(=O)c2cc(-c3cc(C(F)(F)F)c4c(N)ncnn34)ccc2C(F)(F)F)C1)C(F)(F)F (stereo partly drawn) [Example 898, 5-[4-amino-5-(trifluoromethyl)pyrrolo[2,1-f][1,2,4]triazin-7-yl]-N-[(3R,4S)-4-fluoro-1-(4,4,4-trifluoro-3-hydroxy-3-methylbutanoyl)pyrrolidin-3-yl]-2-(trifluoromethyl)benzamide] | 0.019 µM
11 | COc1cc(F)c(-c2cc(CN3CCC(F)(F)CC3)c3c(N)ncnn23)cc1C(=O)N[C@@H]1CN(C(=O)C(C)(C)C(F)(F)F)C[C@@H]1F [Example 1638, 5-{4-amino-5-[(4,4-difluoropiperidin-1-yl)methyl]pyrrolo[2,1-f][1,2,4]triazin-7-yl}-4-fluoro-N-[(3R,4S)-4-fluoro-1-(3,3,3-trifluoro-2,2-dimethylpropanoyl)pyrrolidin-3-yl]-2-methoxybenzamide] | 0.0017 µM
12 | CNc1ccc(-c2cc(C(F)(F)F)c3c(N)ncnn23)cc1C(=O)N[C@@H]1CN(C(=O)CC(O)(C(F)(F)F)C(F)(F)F)C[C@@H]1F [Example 1137, 5-[4-amino-5-(trifluoromethyl)pyrrolo[2,1-f][1,2,4]triazin-7-yl]-N-[(3R,4S)-4-fluoro-1-[4,4,4-trifluoro-3-hydroxy-3-(trifluoromethyl)butanoyl]pyrrolidin-3-yl]-2-(methylamino)benzamide] | 0.02 µM
13 | CC(C)CC(=O)N1C[C@H](F)[C@H](NC(=O)c2cccc(-c3cc(C(F)(F)F)c4c(N)ncnn34)c2F)C1 [Example 764, 3-[4-amino-5-(trifluoromethyl)pyrrolo[2,1-f][1,2,4]triazin-7-yl]-2-fluoro-N-[(3R,4S)-4-fluoro-1-(3-methylbutanoyl)pyrrolidin-3-yl]benzamide] | 0.067 µM
14 | Nc1ncnn2c(-c3cccc(C(=O)N[C@@H]4CN(C(=O)C5CC5(F)F)C[C@@H]4F)c3F)cc(C(F)(F)F)c12 (stereo partly drawn) [Example 773, 3-[4-amino-5-(trifluoromethyl)pyrrolo[2,1-f][1,2,4]triazin-7-yl]-N-[(3R,4S)-1-(2,2-difluorocyclopropanecarbonyl)-4-fluoropyrrolidin-3-yl]-2-fluorobenzamide] | 0.23 µM
15 | Nc1ncnn2c(-c3ccc(Cl)c(C(=O)N[C@@H]4CN(C(=O)C5CCC(F)(F)C5)C[C@@H]4F)c3)cc(C(F)(F)F)c12 (stereo partly drawn) [Example 930, 5-[4-amino-5-(trifluoromethyl)pyrrolo[2,1-f][1,2,4]triazin-7-yl]-2-chloro-N-[(3R,4S)-1-(3,3-difluorocyclopentanecarbonyl)-4-fluoropyrrolidin-3-yl]benzamide] | 0.0032 µM
16 | Nc1ncnn2c(-c3cccc(C(=O)N[C@@H]4CN(C(=O)C5CC(F)C5)C[C@@H]4F)c3)cc(CN3CC(F)(F)C3)c12 (stereo partly drawn) [Example 1174, 3-{4-amino-5-[(3,3-difluoroazetidin-1-yl)methyl]pyrrolo[2,1-f][1,2,4]triazin-7-yl}-N-[(3R,4S)-4-fluoro-1-(3-fluorocyclobutanecarbonyl)pyrrolidin-3-yl]benzamide] | 0.0013 µM
17 | COc1ccc(OC)c(S(=O)(=O)N2C[C@H](F)[C@H](NC(=O)c3cc(-c4cc(C(F)(F)F)c5c(N)ncnn45)cnc3OC)C2)c1 [Example 1470, 5-[4-amino-5-(trifluoromethyl)pyrrolo[2,1-f][1,2,4]triazin-7-yl]-N-[(3R,4S)-1-(2,5-dimethoxybenzenesulfonyl)-4-fluoropyrrolidin-3-yl]-2-methoxypyridine-3-carboxamide] | 0.287 µM
18 | COc1ncc(-c2ccc3c(NCCO)ncnn23)cc1C(=O)Nc1cnn(Cc2ccccc2)c1 [Example 55, N-(1-benzyl-1H-pyrazol-4-yl)-5-(4-((2-hydroxyethyl)amino)pyrrolo[2,1-f][1,2,4]triazin-7-yl)-2-methoxynicotinamide] | 0.479 µM
19 | [2H]C([2H])([2H])Oc1ncc(-c2cc(CN3CC(F)(F)C3)c3c(N)ncnn23)cc1C(=O)N[C@@H]1CN(S(=O)(=O)C(c2ccccc2)C(F)(F)F)C[C@@H]1F (stereo partly drawn) [Example 1293, 5-{4-amino-5-[(3,3-difluoroazetidin-1-yl)methyl]pyrrolo[2,1-f][1,2,4]triazin-7-yl}-N-[(3R,4S)-4-fluoro-1-(2,2,2-trifluoro-1-phenylethanesulfonyl)pyrrolidin-3-yl]-2-(methoxy-d3)nicotinamide] | 0.0038 µM
20 | COc1ncc(-c2cc(C(F)(F)F)c3c(N)ncnn23)cc1C(=O)N[C@@H]1CN(C(=O)c2ccc(F)cn2)C[C@@H]1F [Example 309, 5-[4-amino-5-(trifluoromethyl)pyrrolo[2,1-f][1,2,4]triazin-7-yl]-N-[(3R,4S)-4-fluoro-1-(5-fluoro-pyridine-2-carbonyl)pyrrolidin-3-yl]-2-methoxypyridine-3-carboxamide] | 0.063 µM
21 | COc1ncc(-c2cc(C(F)(F)F)c3c(N)ncnn23)cc1C(=O)Nc1nc(C(=O)NC(C)(C)C)co1 [Example 1300, 5-[4-amino-5-(trifluoromethyl)pyrrolo-[2,1-f][1,2,4]triazin-7-yl]-N-[4-(tert-butylcarbamoyl)-1,3-oxazol-2-yl]-2-methoxypyridine-3-carboxamide] | 0.328 µM
22 | Cc1nc(C)c(-c2cc(C(F)(F)F)c3c(N)ncnn23)cc1C(=O)N[C@@H]1CN(C(=O)c2c(F)cccc2F)C[C@@H]1F [Example 1200, 5-[4-amino-5-(trifluoromethyl)pyrrolo[2,1-f][1,2,4]triazin-7-yl]-N-[(3R,4S)-1-(2,6-difluorobenzoyl)-4-fluoropyrrolidin-3-yl]-2,6-dimethylpyridine-3-carboxamide] | 0.02 µM
23 | Cc1nc(C)c(-c2cc(C(F)(F)F)c3c(N)ncnn23)cc1C(=O)N[C@@H]1CN(C(=O)c2c(F)cncc2F)C[C@@H]1F [Example 1188, 5-[4-amino-5-(trifluoromethyl)pyrrolo[2,1-f][1,2,4]triazin-7-yl]-N-[(3R,4S)-1-(3,5-difluoropyridine-4-carbonyl)-4-fluoropyrrolidin-3-yl]-2,6-dimethylpyridine-3-carboxamide] | 0.086 µM
24 | COc1ncc(-c2cc(C(F)(F)F)c3c(N)ncnn23)cc1C(=O)NCCC(O)c1ccccc1 (stereo not drawn) [Example 117, 5-[4-amino-5-(trifluoromethyl)pyrrolo[2,1-f][1,2,4]triazin-7-yl]-N-(3-hydroxy-3-phenylpropyl)-2-methoxypyridine-3-carboxamide] | 0.079 µM
